Results: the supplement of paper PMC12217912
The list shows a part of the results. Sequences were assembled here from the parent chain. Inactive controls read about 0.05.

B1: TEV protease; numbered along this chain (parent)
chain: MGESLFKGPRDYNPISSSICHLTNESDGHTTSLYGIGFGPFIITNKHLFRRNNGTLVVQSLHGVFKVKDTTTLQQHLVDGRDMIIIRMPKDFPPFPQKLKFREPQREERICLVTTNFQTKSMSSMVSDTSCTFPSGDGIFWKHWIQTKDGQCGSPLVSTRDGFIVGIHSASNFTNTNNYFTSVPKNFMELLTNQEAQQWVSGWRLNADSVLWGGHKVFMVKPEEPFQPVKEATQL

Variants of: B1
Assay: raw area under fraction-flipped curve 0-4 h after induction (AUC4h, not background-subtracted), DNA-recorder readout of cleavage of the substrate (dimensionless); higher = more cleavage of the substrate by the protease variant
Conditions: temperature: 34 °C; time window: 0-4 h after rhamnose induction
Procedure: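 In vivo DNA recorder in E. coli TOP10(DE3) ΔrhaA at 34 °C. Each TEVp single-site mutant (parent TEVp 0) is paired with a single-site variant of the 7-mer TEVs (canonical ENLYFQ|S). The substrate sits between flexible linkers in a Bxb1-sfGFP-TEVs-SsrA fusion, so cleavage stabilises Bxb1 and speeds flipping of a recombination array, read by NGS. The value is the raw area under the fraction-flipped curve over 0-4 h after rhamnose induction (AUC4h), with ≥20 reads per time point. It is not background-subtracted; inactive controls average about 0.047.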
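Further: Bxb1 expression induced with 0.2% (w/v) L-rhamnose at OD600 near 0.5, cultures sampled hourly, flipped fraction per protease–substrate barcode pair counted by paired-end Illumina sequencing.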

| Variant | area with substrate ENLYFCS | area with substrate ENLYFDS | area with substrate ENLYFES | area with substrate ENLYFFS | area with substrate ENLYFIS | area with substrate ENLYFKS | area with substrate ENLYFMS | area with substrate ENLYFPS | area with substrate ENLYFRS | area with substrate ENLYFSS | area with substrate ENLYFTS | area with substrate ENLYFVS | area with substrate ENLYFGS | area with substrate ENLYFLS | area with substrate ENLYFNS | area with substrate ENLYFHS | area with substrate ENLYFWS | area with substrate ENLYFYS |
| --- | --- | --- | --- | --- | --- | --- | --- | --- | --- | --- | --- | --- | --- | --- | --- | --- | --- | --- |
| K120M | 0.0538 | 0.056 | 0.0678 | 0.0771 | 0.055 | 0.0501 | 0.0497 | 0.0655 | 0.0569 | 0.0589 | 0.06 | 0.0312 | – | – | – | – | – | – |
| S154Q | 0.0528 | – | – | 0.0705 | 0.0473 | – | – | 0.0397 | – | 0.0666 | 0.0639 | – | 0.0599 | 0.0465 | 0.0652 | – | – | – |
| Q194V | 0.0479 | – | – | – | 0.0563 | 0.066 | 0.0652 | 0.0628 | 0.0667 | 0.0659 | 0.0449 | – | – | – | 0.0447 | 0.052 | 0.043 | – |
| Q194K | 0.0606 | 0.0592 | 0.0615 | – | 0.0651 | 0.0582 | – | 0.0557 | – | – | 0.0457 | 0.0235 | – | – | 0.0602 | 0.061 | 0.074 | – |
| S121R | 0.0661 | 0.0533 | 0.0742 | 0.0745 | 0.0355 | 0.0605 | 0.0638 | 0.0629 | 0.0553 | 0.0585 | 0.056 | 0.0589 | 0.0655 | – | 0.0543 | 0.0639 | – | 0.0645 |
| N175W | 0.0616 | – | – | – | – | 0.0811 | – | – | – | – | – | – | – | – | – | – | – | – |
| H143I | 0.0436 | 0.0433 | – | 0.0604 | 0.0614 | – | 0.0658 | 0.0422 | – | 0.0535 | – | – | – | 0.0639 | – | – | 0.0409 | – |
| N178F | 0.0668 | – | – | – | 0.0384 | – | 0.0917 | 0.0583 | 0.0564 | – | – | – | – | 0.063 | – | 0.0822 | – | – |
| P134K | 0.0608 | 0.0484 | – | 0.0916 | 0.0624 | – | 0.0538 | 0.0682 | – | – | 0.0599 | 0.0488 | – | – | 0.0709 | – | 0.0514 | – |
| D91L | 0.0553 | 0.0481 | – | – | 0.0514 | – | – | 0.0653 | – | – | – | – | – | – | – | – | 0.0462 | – |
| E195G | 0.0636 | – | 0.0573 | – | 0.0464 | 0.0778 | – | 0.0597 | 0.0344 | – | 0.0642 | – | 0.0594 | – | 0.0656 | – | 0.0527 | – |
| P222N | 0.0461 | – | 0.0745 | 0.0926 | 0.0594 | – | 0.0459 | 0.0642 | – | 0.0514 | 0.057 | 0.0563 | – | 0.059 | 0.065 | 0.0516 | 0.0586 | 0.0469 |
| N193W | 0.0066 | – | – | – | 0.0572 | – | 0.0501 | 0.0493 | – | – | – | – | – | – | 0.0536 | – | – | 0.0666 |
| V57D | 0.0588 | 0.0585 | 0.0828 | 0.0681 | 0.0609 | 0.0689 | 0.0591 | 0.063 | 0.0243 | – | 0.0513 | 0.0331 | 0.0616 | 0.0564 | 0.0628 | 0.0612 | – | 0.0552 |
| P94M | 0.0793 | – | – | 0.0674 | 0.0541 | 0.0584 | 0.0479 | 0.0621 | 0.052 | – | 0.0661 | – | – | – | 0.0652 | – | 0.0597 | – |
| R102K | 0.0567 | 0.0575 | 0.0619 | 0.0852 | 0.0574 | 0.0618 | 0.0747 | 0.0658 | 0.0554 | 0.0574 | 0.0638 | 0.0562 | – | – | 0.0698 | 0.0575 | – | – |
